Some of the results follow.
tested on: PfHDP1 homeodomain (GST-tagged); experiment: gcPBM binding intensity (ln(normalized median fluorescence intensity)); higher = stronger DNA binding
Outline: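 DNA-binding domains from P. falciparum, fused to GST and produced in E. coli, were put on an Agilent 4 × 180k double-stranded probe array for 1 h in 1× PBS holding 1% milk, 0.2 mg/ml BSA, 0.5% salmon testes DNA and 0.03% Triton X-100. Probes were primer-extended, 36 bp long and drawn from intergenic genomic regions, with negative controls included. After Alexa488 anti-GST antibody detection and a 488 nm scan, binding intensity was set as the highest Masliner-normalised natural-log median intensity across replicate spots of either probe orientation.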

Sequence	gcPBM binding intensity (ln)
GATAATTTTTTTCTCACACACAAATATTTTAATCAT [CACACA_site3666]	6.63
AAATATATTATATCATATATTAAAGCATATATTAAA [CACACA_negctrl_site1624]	6.1
TAGATACTTGTCATGGGTACATATCGTACCTTTTGG [XGTACX_site6781]	6.36
CTCTTCTATATATAAGCATGCATTCATAATAATTTA [TGCATGCA_site679]	7.04
TTTATATGATATATTACACACAAAAAAAAAAAAAAA [CACACA_site3549]	6.27
CATTATGTCGTAAATACACACATACCTATACATACA [CACACA_site6763]	6.79
AATATATAGCTAAAAACACACAAATATATACGCATA [CACACA_site3608]	6.54
CCATAAGATATATGTAGTACATATTATATATATATA [XGTACX_site2104]	8.62
TATACACATATATAAACACACAAAAAAAAAAAAAAA [CACACA_site7041]	6.47
ATTTCATTTTATAAGTGTACAATAAAAAAAAAAAAA [XGTACX_site8677]	6.51
GTTTACATTAAAAATTGTACTCTGTATGAATAATAT [XGTACX_site80]	6.25
CTTAAAAAAACCTTAACACACATAAACTCTAATTTA [CACACA_site7430]	6.13
GATGATACAAAGTAATGTACATAAATACACATATTG [XGTACX_site3177]	6.59
ATATAAACAGAAAATAGTACTTTATATTGAAAAAAA [XGTACX_site7183]	6.36
AAATTTGATATAAAAAGTACAAAATGTTCCTCAGCT [XGTACX_site809]	6.15
AATTTATAATTATAGAGTACATATTTTTAATATATA [XGTACX_site2566]	6.14
ACAGCTACCAGATACTGTACTTTTCTCCAGACTGCA [XGTACX_site2541]	6.07
ATGTGATATAAGTACACACACATATGTATTTATAAC [CACACA_site6942]	6.57
ATATACATAATCTTCTTGCACTTTTTTTTTTTTTTT [GTGCAC_site9410]	7.25
TATATTTTGTTCTTTCCACACACAAATACATATATT [CACACA_site9348]	7.11
ATATACACTTAATTTTTTATAAAAAAAAATTTATAT [CACACA_negctrl_site498]	6.38
GTAATAATTTTTTGTAGTACACAAAAATTCATATTT [XGTACX_site2699]	6.86
TTAAAATTAAAAATGCGTACACATATACATAAAAAA [XGTACX_site1915]	6.6

Sequence	gcPBM binding intensity (ln)
ATTAATTTTAATAAAGGTACACGTAGTTTTTTATTA [XGTACX_site7868]	6.03
AACAAAACCTTATATGTACACACATATACATCACAC [CACACA_site9037]	6.88
TATATATATATATATTGTACTGAACGTTTTTTTTTG [XGTACX_site8060]	9.05
GCTTAATGTCATATATCACACATGAAAATATATATA [CACACA_site5089]	6.74
TTTTGATTTCCTATTGCACACTTTTTTTAAGTTTAT [CACACA_site1056]	9.79
TGCATATACGCAAGCACACATATATATATATATATA [CACACA_site1069]	9.53
TATATATATATATAATGTACATATAATATATTTATT [XGTACX_site7892]	9.09
TAAATATATTAATACACACACGATATGTACAAAAAA [CACACA_site540]	6.53
GGCAATACATAATAATGTACATAATTATATAATATT [XGTACX_site3739]	6.46
TATATCTGTTTATATTGTACACATATATATATATAT [XGTACX_site714]	9.3
TACGTATTTTAATATTTACACACTTATTTTTTATAT [CACACA_site7924]	6.65
GGACAACAAACAAACACACACAAAAAAAAAATAAAA [CACACA_site3791]	6.59
AATTTTTCAAATTAATGTACTTGTTATAAATTGTAA [XGTACX_site5428]	6.19
TTGTTTCTTTTTTTTTGTACATATATATTGTATATT [XGTACX_site7602]	7.07
TATATAATATATATATGTACATATATATATGTTTTT [XGTACX_site3347]	6.44
TATACATAAAACAGTTCACACATTGTATGAATATAT [CACACA_site4751]	6.52
TACAAACACCCATATACACACAAAAAAAAAATAAAA [CACACA_site5421]	6.53
AGAAAAACTTATATGATACACACGATAAACAAAATA [CACACA_site1038]	6.55
ATATTTTAAAATAATACACACAAAATGATTCTTAAT [CACACA_site2930]	7.01
AACAATAAATTATTATGTACACATATATTATATATA [XGTACX_site4629]	6.47
TATATTATATAATTTTAACACACAAGAATATAAACT [CACACA_site8378]	6.75
ATAAGTATTACTAGTACACACAAGTTGTTAATCCTT [CACACA_site3324]	6.9

Reference: the supplement of paper PMC11417369
